The values below come from publication PMC4336329 (PLoS ONE, 2015).

In all, about 310,000 compounds went through this assay and about 14,000 (4.5%) showed an effect of 50% or more. Effects have a minus sign here. The list shows a part of the results.
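Also: peak tail current of the secondary pulse compared with the same well before compound.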

This assay deals with human ether-à-go-go-related gene (hERG) potassium channel (human, UniProt Q12809). The assay is described as follows: primary screen, population patch clamp on CHO cells stably expressing hERG.
Chain of human ether-à-go-go-related gene (hERG) potassium channel (Q12809 whole entry, looked up): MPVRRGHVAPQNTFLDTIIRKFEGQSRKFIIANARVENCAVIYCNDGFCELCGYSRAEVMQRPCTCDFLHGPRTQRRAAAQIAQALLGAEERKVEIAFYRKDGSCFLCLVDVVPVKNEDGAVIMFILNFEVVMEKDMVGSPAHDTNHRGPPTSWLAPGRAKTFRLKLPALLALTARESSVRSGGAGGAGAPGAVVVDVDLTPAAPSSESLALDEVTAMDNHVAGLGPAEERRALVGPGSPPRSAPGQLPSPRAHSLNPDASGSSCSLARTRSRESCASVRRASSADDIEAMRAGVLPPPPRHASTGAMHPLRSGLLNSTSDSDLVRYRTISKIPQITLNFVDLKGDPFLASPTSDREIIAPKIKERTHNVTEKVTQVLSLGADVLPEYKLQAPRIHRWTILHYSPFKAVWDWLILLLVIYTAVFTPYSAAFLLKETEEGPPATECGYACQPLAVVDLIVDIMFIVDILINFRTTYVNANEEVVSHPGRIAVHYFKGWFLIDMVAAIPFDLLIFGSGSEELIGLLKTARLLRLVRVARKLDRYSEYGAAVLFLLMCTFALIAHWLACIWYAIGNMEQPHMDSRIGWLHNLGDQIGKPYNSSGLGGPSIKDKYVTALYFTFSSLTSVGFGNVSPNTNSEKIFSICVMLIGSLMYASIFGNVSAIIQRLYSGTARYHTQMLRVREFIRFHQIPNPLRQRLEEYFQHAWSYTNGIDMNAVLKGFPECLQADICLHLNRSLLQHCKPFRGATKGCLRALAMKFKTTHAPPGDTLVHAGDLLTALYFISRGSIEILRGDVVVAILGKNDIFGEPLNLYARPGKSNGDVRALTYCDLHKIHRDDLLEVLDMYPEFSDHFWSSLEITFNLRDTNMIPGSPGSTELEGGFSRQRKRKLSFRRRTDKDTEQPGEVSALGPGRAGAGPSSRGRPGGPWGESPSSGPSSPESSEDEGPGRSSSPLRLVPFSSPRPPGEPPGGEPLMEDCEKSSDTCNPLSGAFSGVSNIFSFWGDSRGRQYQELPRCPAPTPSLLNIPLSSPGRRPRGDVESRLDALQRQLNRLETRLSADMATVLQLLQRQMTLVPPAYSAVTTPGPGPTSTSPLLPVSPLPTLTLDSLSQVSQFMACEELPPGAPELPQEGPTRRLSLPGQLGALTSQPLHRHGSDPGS
As to `CSc1nnc(-c2cccn(Cc3cccc(Cl)c3)c2=O)o1`, the “hERG current change (%, negative = inhibition) at 10uM” value was -11.2%. Regarding `Cc1ccc(Cl)cc1N1CCN(C(=O)c2ccc(CS(=O)Cc3ccc(Cl)cc3)o2)CC1` (stereo not drawn), the “hERG current change (%, negative = inhibition) at 10uM” value was determined as 13.9%.

On to `COc1ccccc1-c1c(C)nn2c(N)c(-c3ccc(Cl)cc3)cnc12`, for which the “hERG current change (%, negative = inhibition) at 10uM” value turned out to be 27%. Under `COc1ccc(COC(=O)CCS(=O)(=O)c2ccc(C)cc2)cc1` stands 12.6%; under `CCN1CCN(C(C(=O)NC2CCCCC2)c2ccc(Cl)cc2)CC1` (stereo not drawn), -21.7%. Under `COc1ccccc1NC(=O)CN1CCN(CC(=O)Nc2ccc(C)c(F)c2)CC1` stands -70%. The figure for `CN(C)C(=S)SCCn1c(N)nc(N(C)C)nc1=O` is 12.2%; for `C/C(=N\NS(=O)(=O)c1ccc(C)cc1)c1ccc(Br)s1` it is 9.9%.

Take `Cc1ccc(S(=O)(=O)Nc2ccc3[nH]c(=O)[nH]c3c2)c(C)c1`: the “hERG current change (%, negative = inhibition) at 10uM” value is recorded as 7.85%.

On to `COc1cc2ccc(=O)oc2c(CC=C(C)C)c1OC`, for which the “hERG current change (%, negative = inhibition) at 10uM” value was -2.74%. In the case of `O=C(NC1CCCCNC1=O)c1ccco1` (stereo not drawn), the “hERG current change (%, negative = inhibition) at 10uM” value amounted to 26.8%. The figure for `Cc1ccc2[nH]cc(CCNC(=O)c3ccc([N+](=O)[O-])cc3)c2c1` is -1.88%; for `O=C(Nc1ccc(C(F)(F)F)cc1)c1ccccc1Br` it is 7.52%; for `CCN(CC)S(=O)(=O)c1ccc2c(c1)N(CC(=O)Nc1cccnc1Cl)C(=O)CO2` it is -8.43%. Consider `Cc1ccc(C)c(Nc2ncccc2C(=O)NCc2cccs2)c1`, for which the “hERG current change (%, negative = inhibition) at 10uM” value was -1.16%. With `O=C1NN=C(CSc2n[nH]c(=S)s2)CS1`, the “hERG current change (%, negative = inhibition) at 10uM” value worked out at 22.2%. Under `CN(c1ccccc1C(=O)Nc1ccc2ccccc2c1)S(C)(=O)=O` stands -22.6%; under `CN(C)CCCNC(=O)CC(c1ccccc1)c1ccccc1O` (stereo not drawn), -13.2%. Turning to `CC1CC(C)CN(S(=O)(=O)c2ccc(C(=O)N(c3ccccn3)C3CCCCC3)cc2)C1` (stereo not drawn), the “hERG current change (%, negative = inhibition) at 10uM” value was -19.2%.

As for `CCOC(=O)C1CCN(C(=O)c2ccc3c(=O)n4nc(Nc5cc(C)ccc5C)sc4nc3c2)CC1`, the “hERG current change (%, negative = inhibition) at 10uM” value was -4.55%.

Regarding `CCc1ccccc1NC(=O)Cn1nnc(C(=O)NCc2cccs2)c1N`, the “hERG current change (%, negative = inhibition) at 10uM” value stood at 13.8%. For `COC(=O)[C@@]1(Cc2ccc(F)cc2)[C@H]2c3cc(C(=O)N(C)C)n(CCc4ccc(OC)c(Br)c4)c3C[C@H]2CN1C(=O)c1ccccc1`, the “hERG current change (%, negative = inhibition) at 10uM” value is listed as -2.99%. The figure for `CC(=O)N/C(=C\c1ccccc1)C(=O)OCc1ccc(C)cc1` is -19.9%; for `O=C(c1ccccc1F)c1cn(CC(=O)N2CCOCC2)c2ccccc12` it is -1.82%.
